Source: PMC12903445
No constants are given. Whether binding was seen depends on the method and setting. Binding seen in cells or lysates may run through a third protein. Some results given as binding are weak or reduced against the parent protein; the word gives no strength. Where a sequence is shown, tags or fusion partners need not be part of it.

Amino acid sequences for entries named in this document (tags omitted).
UniProt P55852: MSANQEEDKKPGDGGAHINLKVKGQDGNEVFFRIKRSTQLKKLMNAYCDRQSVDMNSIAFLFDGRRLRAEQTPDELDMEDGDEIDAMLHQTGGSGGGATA
UniProt Q9FLP6: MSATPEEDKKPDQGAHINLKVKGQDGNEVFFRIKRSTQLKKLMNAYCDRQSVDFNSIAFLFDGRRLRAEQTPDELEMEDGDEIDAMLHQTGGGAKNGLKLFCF

B1: αKNL2-C (C-terminal region of Arabidopsis KINETOCHORE NULL2, aa 364–598), Venus-half fusion (domain or fragment, UniProt F4KCE9 364-598)
chain: NYSGTKVKSAENKRKIDASKLQSPTSNVAEHSKEGLNNAKSNDVEKDVCVAINNEVISPVKGFGKRLSGTDVERLTSKNATKESLTSVQRKGRVKVSKAFQDPLSKGKSKKSEKTLQSNSNVVEPMNHFRSEAEEAEENLSWEKIKRKIDFDVEVTPEKKVKQQKTNAASTDSLGQKRSRSGRVLVSSLEFWRNQIPVYDMDRNLIQVKDGSETNSAPSKGKGSDSRKRRNLKIK
B2: small ubiquitin-like modifier 3 (SUMO3), Venus-half fusion (protein, UniProt Q9FLP5 1-111)
chain: MSNPQDDKPIDQEQEAHVILKVKSQDGDEVLFKNKKSAPLKKLMYVYCDRRGLKLDAFAFIFNGARIGGLETPDELDMEDGDVIDACRAMSGGLRANQRQWSYMLFDHNGL
B3: full-length αKNL2 (aa 1–598), Venus-half fusion (protein, UniProt F4KCE9 1-598)
chain: MTEPNLDEDGSKSSFQKTVVLRDWWLIKCPKEFEGKQFGVAGFEESVETRAMRVFTSSPITKALDVFTLLASDGIYITLRGFLNKERVLKNGFNPEISREFIFGFPPCWERVCNSCFEGDSFGTDVNTVPSTIEKACPPILSPCKYSNRNLKDNPAESREKSNVTETDIAEINDKGGSGARDIKTARRRSLHLQIKRILESSKVRKTANDGDHGSEFLNTAKRGDVERDGCEVINNEDSEWKLDESEVQNLCNDGDNGSEGFIKAKSSDVEKDKSEAIDNDVISPAVGSGIKHTGADNVDKVTSASATGESLTSEQQNGLLVTTASPHSLLKDLAKSSKPEKKGISKKSGKILRSDDNVVDPMNYSGTKVKSAENKRKIDASKLQSPTSNVAEHSKEGLNNAKSNDVEKDVCVAINNEVISPVKGFGKRLSGTDVERLTSKNATKESLTSVQRKGRVKVSKAFQDPLSKGKSKKSEKTLQSNSNVVEPMNHFRSEAEEAEENLSWEKIKRKIDFDVEVTPEKKVKQQKTNAASTDSLGQKRSRSGRVLVSSLEFWRNQIPVYDMDRNLIQVKDGSETNSAPSKGKGSDSRKRRNLKIK
B4: SUMO5, Venus-half fusion (protein, UniProt Q8VZI7 1-108)
chain: MVSSTDTISASFVSKKSRSPETSPHMKVTLKVKNQQGAEDLYKIGTHAHLKKLMSAYCTKRNLDYSSVRFVYNGREIKARQTPAQLHMEEEDEICMVMELGGGGPYTP
B5: αKNL2-C^Mut-SUMO (SUMOylation-deficient αKNL2-C: K378R, K474R, K511R, SIMs 547–551 and 568–572 deleted), Venus-half fusion (domain or fragment, UniProt F4KCE9)
chain: NYSGTKVKSAENKRRIDASKLQSPTSNVAEHSKEGLNNAKSNDVEKDVCVAINNEVISPVKGFGKRLSGTDVERLTSKNATKESLTSVQRKGRVKVSKAFQDPLSKGKSKRSEKTLQSNSNVVEPMNHFRSEAEEAEENLSWEKIKRRIDFDVEVTPEKKVKQQKTNAASTDSLGQKRSRSGRLEFWRNQIPVYDMDRNDGSETNSAPSKGKGSDSRKRRNLKIK
B6: αKNL2-C^K474R/K511R, Venus-half fusion (domain or fragment, UniProt F4KCE9 364-598)
chain: NYSGTKVKSAENKRKIDASKLQSPTSNVAEHSKEGLNNAKSNDVEKDVCVAINNEVISPVKGFGKRLSGTDVERLTSKNATKESLTSVQRKGRVKVSKAFQDPLSKGKSKRSEKTLQSNSNVVEPMNHFRSEAEEAEENLSWEKIKRRIDFDVEVTPEKKVKQQKTNAASTDSLGQKRSRSGRVLVSSLEFWRNQIPVYDMDRNLIQVKDGSETNSAPSKGKGSDSRKRRNLKIK
B7: αKNL2-N (N-terminal region of αKNL2, aa 1–363), Venus-half fusion (domain or fragment, UniProt F4KCE9 1-363)
chain: MTEPNLDEDGSKSSFQKTVVLRDWWLIKCPKEFEGKQFGVAGFEESVETRAMRVFTSSPITKALDVFTLLASDGIYITLRGFLNKERVLKNGFNPEISREFIFGFPPCWERVCNSCFEGDSFGTDVNTVPSTIEKACPPILSPCKYSNRNLKDNPAESREKSNVTETDIAEINDKGGSGARDIKTARRRSLHLQIKRILESSKVRKTANDGDHGSEFLNTAKRGDVERDGCEVINNEDSEWKLDESEVQNLCNDGDNGSEGFIKAKSSDVEKDKSEAIDNDVISPAVGSGIKHTGADNVDKVTSASATGESLTSEQQNGLLVTTASPHSLLKDLAKSSKPEKKGISKKSGKILRSDDNVVDPM

Legend:
[1] = target: T1, full-length αKNL2 (aa 1–598), Venus-half fusion (A. thaliana) (UniProt F4KCE9); test: split reporter; BiFC with Venus halves (VENn/VENc) in N. benthamiana leaf epidermal cells co-infiltrated with A. tumefaciens GV3101; HC-Pro co-expressed; both orientations tested
T1 sequence: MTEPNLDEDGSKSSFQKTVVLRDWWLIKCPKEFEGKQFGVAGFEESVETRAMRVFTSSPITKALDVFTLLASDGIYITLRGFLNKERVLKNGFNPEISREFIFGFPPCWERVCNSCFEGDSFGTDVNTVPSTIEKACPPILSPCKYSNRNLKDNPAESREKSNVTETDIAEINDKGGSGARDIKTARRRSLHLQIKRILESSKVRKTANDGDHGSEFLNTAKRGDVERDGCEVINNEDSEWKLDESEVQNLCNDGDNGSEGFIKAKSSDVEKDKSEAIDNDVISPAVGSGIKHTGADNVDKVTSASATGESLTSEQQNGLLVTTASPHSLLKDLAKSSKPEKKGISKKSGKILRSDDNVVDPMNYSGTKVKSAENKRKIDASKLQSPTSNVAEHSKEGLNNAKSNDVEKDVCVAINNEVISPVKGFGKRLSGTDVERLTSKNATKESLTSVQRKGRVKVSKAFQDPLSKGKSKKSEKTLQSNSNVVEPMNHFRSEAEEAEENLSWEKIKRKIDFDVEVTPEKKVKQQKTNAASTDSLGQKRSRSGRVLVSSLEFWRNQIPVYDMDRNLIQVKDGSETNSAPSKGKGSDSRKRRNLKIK

[2] = target: T2, αKNL2-C (C-terminal region of Arabidopsis KINETOCHORE NULL2, aa 364–598), Venus-half fusion (A. thaliana) (UniProt F4KCE9); test: as above
T2 sequence: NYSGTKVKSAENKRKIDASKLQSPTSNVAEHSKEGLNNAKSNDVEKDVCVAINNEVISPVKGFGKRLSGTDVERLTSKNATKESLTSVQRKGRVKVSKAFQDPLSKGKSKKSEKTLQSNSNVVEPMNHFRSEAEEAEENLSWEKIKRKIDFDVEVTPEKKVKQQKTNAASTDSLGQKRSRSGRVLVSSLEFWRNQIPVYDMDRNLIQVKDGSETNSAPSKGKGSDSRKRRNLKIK

[3] = target: T3, αKNL2-N (N-terminal region of αKNL2, aa 1–363), Venus-half fusion (A. thaliana) (UniProt F4KCE9); test: as above
T3 sequence: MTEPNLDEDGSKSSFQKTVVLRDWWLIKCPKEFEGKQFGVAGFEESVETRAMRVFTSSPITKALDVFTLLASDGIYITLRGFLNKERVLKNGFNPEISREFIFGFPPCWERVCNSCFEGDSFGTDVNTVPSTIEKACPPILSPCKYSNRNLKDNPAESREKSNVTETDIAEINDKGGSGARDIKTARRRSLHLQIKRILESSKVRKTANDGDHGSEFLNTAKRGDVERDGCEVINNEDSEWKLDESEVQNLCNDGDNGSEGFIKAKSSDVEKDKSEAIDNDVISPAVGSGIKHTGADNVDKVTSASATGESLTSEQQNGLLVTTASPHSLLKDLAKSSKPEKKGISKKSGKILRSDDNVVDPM

[4] = target: T4, ULP1d (SUMO protease ULP1d/OTS1), Venus-half fusion (A. thaliana) (UniProt Q2PS26); test: as above
T4 sequence: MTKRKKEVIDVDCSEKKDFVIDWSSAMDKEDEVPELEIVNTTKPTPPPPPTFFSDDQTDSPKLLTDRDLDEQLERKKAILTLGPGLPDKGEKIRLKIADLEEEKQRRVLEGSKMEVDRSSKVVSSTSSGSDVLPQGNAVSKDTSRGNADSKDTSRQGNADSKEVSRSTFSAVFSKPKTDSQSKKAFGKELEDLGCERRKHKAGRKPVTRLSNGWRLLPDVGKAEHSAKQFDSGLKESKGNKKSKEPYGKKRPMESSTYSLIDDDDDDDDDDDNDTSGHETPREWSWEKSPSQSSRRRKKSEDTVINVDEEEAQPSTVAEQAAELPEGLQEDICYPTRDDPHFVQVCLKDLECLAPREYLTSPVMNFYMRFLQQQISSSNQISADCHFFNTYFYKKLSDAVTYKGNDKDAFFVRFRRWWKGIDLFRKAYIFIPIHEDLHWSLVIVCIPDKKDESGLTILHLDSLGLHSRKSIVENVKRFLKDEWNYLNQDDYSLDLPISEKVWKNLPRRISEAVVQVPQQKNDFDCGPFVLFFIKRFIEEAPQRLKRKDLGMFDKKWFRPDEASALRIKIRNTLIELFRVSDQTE

[5] = target: T5, αKNL2-C^K474R/K511R, Venus-half fusion (A. thaliana) (UniProt F4KCE9); test: as above
T5 sequence: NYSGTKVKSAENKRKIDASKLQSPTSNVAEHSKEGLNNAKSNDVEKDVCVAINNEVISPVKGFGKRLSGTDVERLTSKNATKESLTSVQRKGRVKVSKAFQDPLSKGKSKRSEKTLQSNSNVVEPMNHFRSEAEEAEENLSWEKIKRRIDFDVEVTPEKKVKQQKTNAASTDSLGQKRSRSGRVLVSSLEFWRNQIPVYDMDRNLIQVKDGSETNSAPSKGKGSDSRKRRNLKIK

[6] = target: T6, αKNL2-C^Mut-SUMO (SUMOylation-deficient αKNL2-C: K378R, K474R, K511R, SIMs 547–551 and 568–572 deleted), Venus-half fusion (A. thaliana) (UniProt F4KCE9); test: as above
T6 sequence: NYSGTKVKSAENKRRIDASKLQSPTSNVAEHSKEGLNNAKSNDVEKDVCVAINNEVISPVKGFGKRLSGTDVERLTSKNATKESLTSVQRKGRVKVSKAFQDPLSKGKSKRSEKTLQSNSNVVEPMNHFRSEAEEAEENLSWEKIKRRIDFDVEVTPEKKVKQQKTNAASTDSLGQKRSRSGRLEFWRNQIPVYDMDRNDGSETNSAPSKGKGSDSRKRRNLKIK

[7] = target: T2, αKNL2-C (C-terminal region of Arabidopsis KINETOCHORE NULL2, aa 364–598), Venus-half fusion (A. thaliana); test: co-IP; N. benthamiana leaves co-expressing HA- and cMYC-tagged (Venus-half) constructs; total protein extracts precipitated with anti-HA magnetic beads (HA-trap, Chromotek); blot with anti-cMYC
[8] = target: T7, CENH3 (centromeric histone H3), Venus-half fusion (A. thaliana) (UniProt Q8RVQ9); test: split reporter; BiFC with Venus halves (VENn/VENc) in N. benthamiana leaf epidermal cells co-infiltrated with A. tumefaciens GV3101; HC-Pro co-expressed; both orientations tested
T7 sequence: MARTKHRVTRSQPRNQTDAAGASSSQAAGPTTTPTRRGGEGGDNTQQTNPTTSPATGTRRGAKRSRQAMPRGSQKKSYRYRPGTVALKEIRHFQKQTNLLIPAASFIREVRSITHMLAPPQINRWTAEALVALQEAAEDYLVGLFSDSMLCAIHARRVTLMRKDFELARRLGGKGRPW

[9] = target: T7, CENH3 (centromeric histone H3), Venus-half fusion (A. thaliana); test: co-IP; N. benthamiana leaves co-expressing HA- and cMYC-tagged (Venus-half) constructs; total protein extracts precipitated with anti-HA magnetic beads (HA-trap, Chromotek); blot with anti-cMYC

Row | binding [1] | binding [2] | binding [3] | binding [4] | other results | Molecule
1 | no binding | no binding | no binding | – | – | SUMO1, Venus-half fusion (from UniProt P55852 1-100)
2 | no binding | no binding | no binding | – | – | SUMO2, Venus-half fusion (from UniProt Q9FLP6 1-103)
3 | – | – | – | binds | – | B1
4 | no binding | binds | no binding | – | binding [5]: no binding; binding [6]: no binding; binding [7]: binds | B2
5 | – | – | – | no binding | – | B3
6 | no binding | no binding | no binding | – | – | B4
7 | – | – | – | no binding | binding [8]: no binding; binding [9]: no binding | B5
8 | – | – | – | no binding | – | B6
9 | – | – | – | no binding | – | B7
